In the supplement of paper PMC4604168 (melanoma cell lines):
The other results are listed elsewhere or left out. Many values rest on one well or one pass, so single values are uncertain.
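Further: cells treated in 1,536-well plates, then fixed and DAPI-stained, with nuclei counted from automated high-throughput microscope images.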

The molecules below were run on MeWo (assay: cell count relative to DMSO control; melanoma cells; higher = more viable cells). Settings: library dose: standard library concentration; 72 h.
`COc1cc2c(Oc3ccc4[nH]c(C)cc4c3F)ncnc2cc1OCCCN1CCCC1` [cediranib] + N#Cc1c(O)c2c(-c3ccc(-c4ccccc4O)cc3)csc2[nH]c1=O [A769662] (first compound 2 µM, partner dose 10 µM) was tested, and the cell count was 77.7%. In the case of `CC(C)(C)c1cnc(CSc2cnc(NC(=O)C3CCNCC3)s2)o1` + CN(C)S(=O)(=O)c1ccc2c(c1)/C(=C/c1cc3c([nH]1)CCCC3)C(=O)N2 [SU6656] (first compound 0.05 µM, partner dose 2 µM), the cell count is reported as 85.9%. Molecule `COc1cc2c(Oc3ccc4[nH]c(C)cc4c3F)ncnc2cc1OCCCN1CCCC1` [cediranib] + COc1ccc(COc2ccc(Cc3cnc(N)nc3N)cc2OC)cc1 [GW2580] (first compound 2 µM, partner dose 5 µM) has a cell count of 76.2%. In the case of `CCCCCCCCc1ccc(CCC(N)(CO)CO)cc1` [fingolimod] + OCCn1cc(-c2cnc3nnn(Cc4ccc5ncccc5c4)c3n2)cn1 [PF04217903] (first compound 10 µM, partner dose 5 µM), the cell count is reported as 79%. `NC(=O)c1ccc(N(C(N)=O)c2c(F)cccc2F)nc1-c1ccc(F)cc1F` + Clc1ccc(Nc2nnc(Cc3ccncc3)c3ccccc23)cc1 [vatalanib] (first compound 2 µM, partner dose 10 µM) was tested, and the cell count was 62.1%. In the case of `CCc1ccc(CCOc2ccc(CC3SC(=O)NC3=O)cc2)nc1` (centres undefined) [pioglitazone] + CC(C)CCN1c2nc(Nc3cc(F)c(O)c(F)c3)ncc2N(C)C(=O)C1C [BID1870] (first compound 10 µM, partner dose 1 µM), the cell count is reported as 72.9%. Molecule `Cc1ccc(NC(=O)c2cccc(N(C)C)c2)cc1NC(=O)c1ccc(O)cc1` + CN(C)S(=O)(=O)c1ccc2c(c1)/C(=C/c1cc3c([nH]1)CCCC3)C(=O)N2 [SU6656] (first compound 10 µM, partner dose 2 µM) has a cell count of 78.2%. `NC(=O)c1ccc(N(C(N)=O)c2c(F)cccc2F)nc1-c1ccc(F)cc1F` + Cc1cc(N2CCOCC2)cc2[nH]c(-c3c(NC[C@@H](O)c4cccc(Cl)c4)cc[nH]c3=O)nc12 [BMS536924] (first compound 2 µM, partner dose 1 µM) gave a cell count of 72.5%. `Cc1ccc(NC(=O)c2cccc(N(C)C)c2)cc1NC(=O)c1ccc(O)cc1` + CCCCCCCCCCCC1=C(O)C(=O)C=C(O)C1=O [Embelin] (first compound 10 µM, partner dose 6 µM) was tested, and the cell count was 99.4%. In the case of `CN(NC(=O)CC(=O)NN(C)C(=S)c1ccccc1)C(=S)c1ccccc1` + Cn1cc(/C=C2\C(=O)Nc3cccnc32)c2ccccc21 [GW441756] (first compound 0.03 µM, partner dose 2 µM), the cell count is reported as 24.4%. Molecule `CCCCCCCCc1ccc(CCC(N)(CO)CO)cc1` [fingolimod] + O=C(O)[C@@H]1[O][Sb](=[O])([O][Sb]2(=[O])[O][C@H]([C@H](O)CO)[C@H](O)[C@H](C(=O)O)[O]2)[O][C@H]([C@H](O)CO)[C@@H]1O [stibogluconate] (first compound 10 µM, partner dose 10 µM) has a cell count of 40.6%. For `Cc1ccc(NC(=O)c2cccc(N(C)C)c2)cc1NC(=O)c1ccc(O)cc1` + COc1cc(N2CCC(N3CCN(C)CC3)CC2)ccc1Nc1ncc(Cl)c(Nc2ccccc2S(=O)(=O)C(C)C)n1 [NVP-TAE684] (first compound 10 µM, partner dose 0.4 µM), the cell count was 63.1%. For `COc1cc2c(Oc3ccc4[nH]c(C)cc4c3F)ncnc2cc1OCCCN1CCCC1` [cediranib] + COc1cc(N2CCC(N3CCN(C)CC3)CC2)ccc1Nc1ncc(Cl)c(Nc2ccccc2S(=O)(=O)C(C)C)n1 [NVP-TAE684] (first compound 2 µM, partner dose 0.4 µM), the cell count was 58.6%. Molecule `COc1cc2c(Oc3ccc4[nH]c(C)cc4c3F)ncnc2cc1OCCCN1CCCC1` [cediranib] + Cn1cc(/C=C2\C(=O)Nc3cccnc32)c2ccccc21 [GW441756] (first compound 2 µM, partner dose 2 µM) has a cell count of 110%. In the case of `COc1cc2c(Oc3ccc4[nH]c(C)cc4c3F)ncnc2cc1OCCCN1CCCC1` [cediranib] + Oc1cc(-c2nc(-c3ccccc3)[nH]c2-c2ccncc2)ccc1Cl [L779450] (first compound 2 µM, partner dose 1 µM), the cell count is reported as 75.1%. Work on `NC(=O)c1ccc(N(C(N)=O)c2c(F)cccc2F)nc1-c1ccc(F)cc1F` + Cc1nc(Nc2ncc(C(=O)Nc3c(C)cccc3Cl)s2)cc(N2CCN(CCO)CC2)n1 [dasatanib] (first compound 2 µM, partner dose 0.02 µM) yielded a cell count of 88.5%. `CC(C)(C)c1cnc(CSc2cnc(NC(=O)C3CCNCC3)s2)o1` + c1cc(-c2cnn3cc(-c4ccc(OCCN5CCCCC5)cc4)cnc23)ccn1 [Dorsomorphin] (first compound 0.05 µM, partner dose 2 µM) showed a cell count of 28.7%. Molecule `CC(C)(C)c1cnc(CSc2cnc(NC(=O)C3CCNCC3)s2)o1` + C[C@@H]1CCN(C(=O)CC#N)C[C@@H]1N(C)c1ncnc2[nH]ccc12 [CP690550] (first compound 0.05 µM, partner dose 5 µM) has a cell count of 83%. `CC(C)(C)c1cnc(CSc2cnc(NC(=O)C3CCNCC3)s2)o1` + Oc1nc(-c2ccc(C(F)(F)F)cc2)nc2c1CSCC2 [XAV939] (first compound 0.05 µM, partner dose 10 µM) was tested, and the cell count was 95.4%. With `NC(=O)c1ccc(N(C(N)=O)c2c(F)cccc2F)nc1-c1ccc(F)cc1F` + C=C(c1ccc(C(=O)O)cc1)c1cc2c(cc1C)C(C)(C)CCC2(C)C [Bexarotene] (first compound 2 µM, partner dose 10 µM) the cell count was 97.9%. For `CCc1ccc(CCOc2ccc(CC3SC(=O)NC3=O)cc2)nc1` (centres undefined) [pioglitazone] + N#Cc1c(O)c2c(-c3ccc(-c4ccccc4O)cc3)csc2[nH]c1=O [A769662] (first compound 10 µM, partner dose 10 µM), the cell count was 102%. `CC(C)(C)c1cnc(CSc2cnc(NC(=O)C3CCNCC3)s2)o1` + Cc1cc([N+](=O)[O-])ccc1NS(=O)(=O)c1cc(Cl)ccc1Cl [FH535] (first compound 0.05 µM, partner dose 5 µM) was tested, and the cell count was 91%. In the case of `NC(=O)c1ccc(N(C(N)=O)c2c(F)cccc2F)nc1-c1ccc(F)cc1F` + CN(c1ncccc1CNc1nc(Nc2ccc3c(c2)CC(=O)N3)ncc1C(F)(F)F)S(C)(=O)=O [PF562271] (first compound 2 µM, partner dose 0.4 µM), the cell count is reported as 90.8%. In the case of `Cc1ccc(NC(=O)c2cccc(N(C)C)c2)cc1NC(=O)c1ccc(O)cc1` + Cc1cc(N2CCOCC2)cc2[nH]c(-c3c(NC[C@@H](O)c4cccc(Cl)c4)cc[nH]c3=O)nc12 [BMS536924] (first compound 10 µM, partner dose 1 µM), the cell count is reported as 74.1%. With `Cc1ccc(NC(=O)c2cccc(N(C)C)c2)cc1NC(=O)c1ccc(O)cc1` + Cn1cc(/C=C2\C(=O)Nc3cccnc32)c2ccccc21 [GW441756] (first compound 10 µM, partner dose 2 µM) the cell count was 101%. With `CC(C)(C)c1cnc(CSc2cnc(NC(=O)C3CCNCC3)s2)o1` + OCCn1cc(-c2cnc3nnn(Cc4ccc5ncccc5c4)c3n2)cn1 [PF04217903] (first compound 0.05 µM, partner dose 5 µM) the cell count was 86.4%. `NC(=O)c1ccc(N(C(N)=O)c2c(F)cccc2F)nc1-c1ccc(F)cc1F` + CCCCCCCCc1ccc(CCC(N)(CO)CO)cc1 [fingolimod] (first compound 2 µM, partner dose 10 µM) was tested, and the cell count was 18.4%. `NC(=O)c1ccc(N(C(N)=O)c2c(F)cccc2F)nc1-c1ccc(F)cc1F` + C[C@@H](Oc1cc(-c2cnn(C3CCNCC3)c2)cnc1N)c1c(Cl)ccc(F)c1Cl [Crizotinib] (first compound 2 µM, partner dose 1 µM) was tested, and the cell count was 91.7%. In the case of `CCCCCCCCc1ccc(CCC(N)(CO)CO)cc1` [fingolimod] + C=C(c1ccc(C(=O)O)cc1)c1cc2c(cc1C)C(C)(C)CCC2(C)C [Bexarotene] (first compound 10 µM, partner dose 10 µM), the cell count is reported as 10%. Molecule `NC(=O)c1ccc(N(C(N)=O)c2c(F)cccc2F)nc1-c1ccc(F)cc1F` + O=C(O)c1ccc(-c2c[nH]c3ncc(-c4ccccc4)cc23)cc1C1CCCC1 [GSK650394] (first compound 2 µM, partner dose 0.8 µM) has a cell count of 85.3%. With `CCCCCCCCc1ccc(CCC(N)(CO)CO)cc1` [fingolimod] + CS(=O)(=O)CCNCc1ccc(-c2ccc3ncnc(Nc4ccc(OCc5cccc(F)c5)c(Cl)c4)c3c2)o1 [lapatinib] (first compound 10 µM, partner dose 4 µM) the cell count was 7.43%. In the case of `CC(C)(C)c1cnc(CSc2cnc(NC(=O)C3CCNCC3)s2)o1` + CN(NC(=O)CC(=O)NN(C)C(=S)c1ccccc1)C(=S)c1ccccc1 [STA4783] (first compound 0.05 µM, partner dose 0.03 µM), the cell count is reported as 11.6%. With `CCCCCCCCc1ccc(CCC(N)(CO)CO)cc1` [fingolimod] + COc1ccc(Cl)c(Nc2nc3ccccc3nc2NS(=O)(=O)c2cccc(NC(=O)C(C)(C)N)c2)c1 [XL147] (first compound 10 µM, partner dose 4 µM) the cell count was 45.7%. `CCCCCCCCc1ccc(CCC(N)(CO)CO)cc1` [fingolimod] + C[C@@H]1CCN(C(=O)CC#N)C[C@@H]1N(C)c1ncnc2[nH]ccc12 [CP690550] (first compound 10 µM, partner dose 5 µM) was tested, and the cell count was 21.6%.
